Data published in the supplement of paper PMC3724861.
This is one part of the list.

Tested on: T1, Caupolican (Caup) homeodomain DNA-binding domain
T1 sequence: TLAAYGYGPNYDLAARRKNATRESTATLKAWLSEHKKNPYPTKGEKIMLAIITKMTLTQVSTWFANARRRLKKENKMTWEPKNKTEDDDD
Test: PBM E-score (8-mer, recovered from the published 9-mer minima) (E-score (dimensionless, -0.5 to 0.5)); Drosophila protein; higher = stronger relative binding preference, active = 0.31 or more
Outline: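 Caup's homeodomain DNA-binding domain (residues 214-303) was produced by in vitro transcription and translation and applied at 100 nM to custom-designed protein binding microarrays. Each value is an enrichment score giving relative binding preference for a short DNA word; higher means stronger. Published 9-mer scores were the minimum of their two constituent 8-mer scores, and the 8-mer values were recovered from those minima. A cutoff of 0.31 marks candidate binding sequences.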

| Sequence | PBM E-score |
| --- | --- |
| CAGGAACG | inactive: 0.00533 |
| AAAAGCGT | inactive: -0.0853 |
| AAGCTATC | inactive: 0.0157 |
| ACCTCCAG | inactive: -0.111 |
| CGACAGGC | inactive: -0.0503 |
| ACGGGTAG | inactive: -0.0971 |
| ACAGTGCA | ≥ 0.0844 |
| CACGGATA | inactive: 0.128 |
| ACTTCATA | inactive: 0.0382 |
| AATAGCCG | inactive: -0.0448 |
| GCTATTGA | inactive: 0.087 |
| CATTGTTC | inactive: 0.184 |
| AAAGTGCC | inactive: -0.0124 |
| CAATGACC | inactive: 0.065 |
| GCGTGATA | inactive: 0.03 |
| CTGAGGTA | inactive: 0.00332 |
| CACTAAGG | inactive: -0.0674 |
| ACACATAT | active: 0.323 |
| AAACCGAA | inactive: 0.0763 |
| CCAAATTA | inactive: 0.122 |
| CCCTAACG | inactive: -0.192 |
| CCACTTTA | inactive: -0.0164 |
| GCGTGTTA | inactive: 0.284 |

| Sequence | PBM E-score |
| --- | --- |
| AACATCCG | inactive: 0.252 |
| AACTTTGC | inactive: -0.0381 |
| CGAGTTTA | inactive: -0.0356 |
| GTTGCTTA | inactive: 0.145 |
| ATGCCGGG | inactive: -0.193 |
| ATGAGCAG | inactive: 0.00627 |
| ACTTTGCG | inactive: -0.0437 |
| ACCATCCG | inactive: -0.0224 |
| TCAGCTGA | inactive: -0.00984 |
| ACCCATCG | inactive: -0.0141 |
| CCTACACA | inactive: 0.157 |
| AAAAGAGA | inactive: -0.0242 |
| AATTATAC | inactive: 0.202 |
| AGACAACG | inactive: 0.231 |
| CGGATGAG | inactive: -0.0715 |
| ACGGTAGA | inactive: -0.0784 |
| CCGAGGAA | inactive: -0.109 |
| ACGTGTCT | inactive: 0.244 |
| CATGTAAG | active: 0.395 |
| CTAAGGCC | inactive: -0.194 |
| AATCCACT | ≥ 0.084 |
| GCCTCGCA | inactive: -0.166 |
| AGAAGCAA | inactive: 0.0893 |

| Sequence | PBM E-score |
| --- | --- |
| AACCGCTC | inactive: -0.0871 |
| AGAGATCG | inactive: -0.0426 |
| CACAAGTA | inactive: 0.205 |
| CCCAACCG | inactive: -0.162 |
| AGGATTGG | inactive: -0.0154 |
| ACACACTG | inactive: 0.151 |
| CGACTTCA | inactive: -0.0231 |
| ACAATACG | inactive: 0.0886 |
| ACTTTTGA | inactive: 0.0445 |
| ACCATCGC | inactive: -0.0978 |
| CACTTATA | inactive: 0.051 |
| TCTTAGAA | inactive: -0.0146 |
| GGAGAGTA | inactive: -0.106 |
| CTGCCAGC | inactive: -0.207 |
| CCAGAGTA | inactive: -0.0813 |
| ACTGCAAG | inactive: 0.0565 |
| AAGTAGGT | inactive: 0.0353 |
| ATGCGGGA | inactive: -0.0659 |
| CTCCTATC | inactive: -0.0311 |
| ATTTTAAA | inactive: 0.0627 |
| GTGTAAAA | inactive: 0.266 |
| AGTGCTTA | inactive: 0.0428 |
| GTTGGGCA | ≥ 0.0223 |

| Sequence | PBM E-score |
| --- | --- |
| CTTGCCAC | inactive: -0.0874 |
| AGTGGGCC | inactive: -0.141 |
| GGTCTATA | inactive: 0.11 |
| AATACACT | inactive: 0.192 |
| GCCTTTAC | inactive: -0.00546 |
| GGTATTGA | inactive: 0.058 |
| AAATCGTT | inactive: 0.118 |
| CCAGGCAG | inactive: -0.259 |
| CCCTGCCA | inactive: -0.21 |
| CCCGTTTA | inactive: -0.0295 |
| CACCCCAA | inactive: 0.0252 |
| ACAAATAG | inactive: 0.191 |
| TACCTTAA | inactive: -0.0969 |
| GACTATAC | inactive: 0.118 |
| CCGTATAA | inactive: 0.0639 |
| CCGGGGGC | inactive: -0.256 |
| ACAGAGCT | inactive: 0.0369 |
| CAGTCAGA | inactive: -0.00429 |
| ATTAAGAA | inactive: 0.0216 |
| ATCCAGAA | ≥ 0.135 |
| AATAAGGC | inactive: -0.0579 |
| GAGAAATA | inactive: 0.0408 |
| ATCGCCTA | inactive: -0.0684 |

| Sequence | PBM E-score |
| --- | --- |
| GGGTACCA | ≥ 0.0519 |
| ACAGAGTA | ≥ 0.116 |
| CAGTCTGA | inactive: -0.0233 |
| ATTCTCCC | inactive: -0.0331 |
| GGACCTCC | inactive: -0.253 |
| GCATTAGC | inactive: -0.144 |
| CGGTCGAA | inactive: -0.0675 |
| AAGTCAAG | inactive: -0.0582 |
| CTTTGAAC | inactive: -0.0716 |
| TCAAACAA | inactive: 0.202 |
| ATGTTCTG | inactive: 0.279 |
| CCATTCCG | inactive: -0.112 |
| AGCGCAAC | inactive: -0.105 |
| CACTTCAC | inactive: 0.0187 |
| CGGATTGC | inactive: -0.0688 |
| AACATGTA | active: ≥ 0.48 |
| AATCTTAT | inactive: 0.0958 |
| ACTTGAGA | inactive: 0.0185 |
| AATGTAGT | inactive: 0.281 |
| TCTACAAA | inactive: 0.218 |
